# According to publication PMC4336329 (PLoS ONE, 2015):
# About 14,000 (4.5%) of roughly 310,000 compounds showed an effect of 50% or more. Effects have a minus sign here. This is one part of the list.
# Target: human ether-à-go-go-related gene (hERG) potassium channel (human, UniProt Q12809)
# Test: primary screen, population patch clamp on CHO cells stably expressing hERG
# 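Note: peak tail current of the secondary pulse compared with the same well before compound.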
# Sequence of human ether-à-go-go-related gene (hERG) potassium channel (Q12809 whole entry, looked up): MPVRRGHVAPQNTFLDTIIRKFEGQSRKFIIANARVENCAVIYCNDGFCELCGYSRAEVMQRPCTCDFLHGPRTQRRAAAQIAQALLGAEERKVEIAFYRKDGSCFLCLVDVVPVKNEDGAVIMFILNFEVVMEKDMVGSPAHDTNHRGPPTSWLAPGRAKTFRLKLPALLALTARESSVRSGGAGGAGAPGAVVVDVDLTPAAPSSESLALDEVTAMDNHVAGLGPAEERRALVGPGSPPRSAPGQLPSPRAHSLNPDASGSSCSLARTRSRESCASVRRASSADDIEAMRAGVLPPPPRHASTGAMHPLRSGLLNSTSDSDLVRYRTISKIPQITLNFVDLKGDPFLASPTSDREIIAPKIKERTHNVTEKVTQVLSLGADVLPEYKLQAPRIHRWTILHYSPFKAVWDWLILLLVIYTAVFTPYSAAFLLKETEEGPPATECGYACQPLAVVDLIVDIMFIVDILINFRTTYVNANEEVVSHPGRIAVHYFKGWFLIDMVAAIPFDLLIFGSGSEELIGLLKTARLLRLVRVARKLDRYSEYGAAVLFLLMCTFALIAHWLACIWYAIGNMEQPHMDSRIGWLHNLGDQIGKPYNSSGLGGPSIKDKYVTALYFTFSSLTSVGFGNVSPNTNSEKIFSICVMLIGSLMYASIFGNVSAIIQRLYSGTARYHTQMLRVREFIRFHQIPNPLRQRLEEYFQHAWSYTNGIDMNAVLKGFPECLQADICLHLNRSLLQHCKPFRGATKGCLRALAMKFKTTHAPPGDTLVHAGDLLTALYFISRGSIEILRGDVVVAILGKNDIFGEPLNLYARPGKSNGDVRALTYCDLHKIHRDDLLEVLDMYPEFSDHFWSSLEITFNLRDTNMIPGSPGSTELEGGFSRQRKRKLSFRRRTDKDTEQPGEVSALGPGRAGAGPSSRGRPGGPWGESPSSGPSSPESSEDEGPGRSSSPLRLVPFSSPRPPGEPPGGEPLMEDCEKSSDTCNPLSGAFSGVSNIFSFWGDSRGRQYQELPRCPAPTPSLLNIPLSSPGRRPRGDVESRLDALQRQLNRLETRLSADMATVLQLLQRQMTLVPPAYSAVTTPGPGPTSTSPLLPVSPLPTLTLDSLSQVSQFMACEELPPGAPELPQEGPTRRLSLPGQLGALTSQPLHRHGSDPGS
row,SMILES,"hERG current change (%, negative = inhibition) at 10uM [%]"
1,NC(=O)Cn1c(-c2nonc2N)nc2ccccc21,19.2
2,CCOc1ccc(Nc2c3ccccc3nc3ccccc23)cc1,-42.4
3,O=C(CSc1nnc(Nc2ccccc2)s1)NC1CC1,-8.25
4,COc1ccc(NS(=O)(=O)c2cccc(C(=O)N3CCN(c4ccccc4O)CC3)c2)cc1,-14.9
5,CC(=O)c1ccc(OC(=O)CCc2ccccc2)cc1,1.84
6,Cn1nc(C(=O)NNC(=O)CCOc2ccc(C(C)(C)C)cc2)c2ccccc2c1=O,-46.7
7,CC(=O)Nc1ccc(C(=O)OCCc2ccccc2)cc1,-5.59
8,CCC1(CC)NC(=O)N(CC(=O)OCc2nc3cc(C(=O)OC)ccc3c(=O)[nH]2)C1=O,5.39
9,Cc1c(OCC(=O)NCCCN2CCCC2=O)ccc2c3c(c(=O)oc12)CCCC3,-8.86
10,NC(=O)c1cc2ccccc2o/c1=N/NC(=O)c1ccccc1,-10.6
11,O=S(=O)(Nc1ccc(-n2cnnn2)cc1)c1ccccc1F,7.1
12,CCN1CCN(CCCCSc2ccccc2)CC1.O=C(O)C(=O)O,-28.3
13,Cc1ccc(N(CC(=O)NC2CCCCC2C)S(=O)(=O)c2c(C)nn(C)c2C)cc1 (stereo not drawn),3.67
14,COC(=O)c1ccc(NC(=O)c2ccc3c(c2)NC(=O)C2CCCN32)cc1 (stereo not drawn),-2.49
15,O=C(N/N=C/c1c[nH]c2ccc(Br)cc12)c1ccccn1,21.5
16,COc1cccc(OC)c1OCCCSc1nc(C)cc(=O)[nH]1,-39.2
17,Cc1cc(C)c2[nH]c(=O)c(C(c3nnnn3Cc3ccc4c(c3)OCO4)N3CCCC3)cc2c1 (stereo not drawn),-6.45
18,CC1(C)CC2CC(C)(CN2CC(O)c2ccccc2)C1.O=C(O)C(=O)O (stereo not drawn),-42.5
19,CC(C)c1ccc(S(=O)(=O)N2CCN(C(C)C(=O)Nc3ccccc3-c3ccccc3)CC2)cc1 (stereo not drawn),12
20,O=[N+]([O-])c1ccc(-c2nnc([S-])n2-c2ccccc2)cc1.[Na+],11.3
21,CC(Oc1ccccc1)C(=O)Nc1nnc(S(=O)(=O)N(C)c2ccccc2)s1 (stereo not drawn),5.26

row,SMILES,"hERG current change (%, negative = inhibition) at 10uM [%]"
1,COc1ccc(S(=O)(=O)N2CCC(C(=O)N3CCc4ccccc4C3)CC2)cc1,-42.6
2,O=C(NCc1ccc(Cl)cc1)c1cc2c(nc3sccn32)s1,12.9
3,O=C(CCN1C(=O)[C@@H]2Cc3ccccc3CN2C1=O)NCc1ccc(Cl)cc1,-64.2
4,CN(C)CCNc1nc(S(=O)(=O)c2ccccc2)c(Cl)s1,-56.2
5,CCCOCn1cc(F)c(=O)[nH]c1=O,19.3
6,COc1ccc(CN(C2CCCC2)S(=O)(=O)c2ccc(-n3cnnn3)cc2)cc1,-43.8
7,COc1cccc(N2C(=O)CC(c3c[nH]c4ccccc34)C2=O)c1 (stereo not drawn),20
8,O=C(CSc1nnc(COc2cccc3ccccc23)o1)N1c2ccccc2CCc2ccccc21,7.68
9,CC(Oc1ccc(Cl)cc1)C(=O)Nc1sccc1C(N)=O (stereo not drawn),-10.4
10,Cc1ccc(-c2nn(-c3ccccc3)cc2C(=O)NCC2CCCO2)cc1 (stereo not drawn),-25.8
11,Cc1ccc(S(=O)(=O)NCCC(=O)NC2CCCC2)cc1,-3.1
12,Cc1cc(NC(=O)CSc2ccc3nnc(CCNC(=O)c4ccccc4)n3n2)no1,2.86
13,C=C1CSc2nc3ccccc3c(=O)n21,10.5
14,COc1cc(-c2nc3n(c(=O)c2C#N)CCS3)cc(OC)c1OC,8.83
15,CCCC1=[N+](CC(=O)c2ccc(Br)cc2)CCn2cccc21.[Br-],-6.09
16,Cc1ccc(NC(=O)CO/N=C(\N)c2nonc2N)cc1C,-0.00012
17,CC(C)(C)C(=O)c1cn(CC(=O)NCc2ccco2)c2ccccc12,24.1
18,CN1CCN(S(=O)(=O)c2cccc(S(=O)(=O)c3cccc(S(=O)(=O)N4CCN(C)CC4)c3)c2)CC1,-4.34
19,O=C(NCc1nc2ccccc2[nH]1)c1cccc(S(=O)(=O)N2CCCCC2)c1,13.9
20,Cc1ccc(-n2c(-c3cccc(C)c3)n[nH]c2=S)cc1,9.94
21,Cc1ccc(-n2nc(C(=O)O)cc2-c2ccc(Cl)cc2)cc1,24.9
